From publication PMC9911399, “Two distinct binding modes provide the RNA-binding protein RbFox with extraordinary sequence specificity”
Residue numbers refer to the chain shown, from its start. This is one part of the list.

T1: RBFOX1 RRM (Homo sapiens, UniProt Q9NWB1 109-208)
T1 sequence: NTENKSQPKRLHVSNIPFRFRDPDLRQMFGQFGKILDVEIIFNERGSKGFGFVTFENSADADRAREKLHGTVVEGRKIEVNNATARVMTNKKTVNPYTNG

B1: GUCCUAC (DNA:RNA)
RNA: GGGAGACCGGAAUUCAGAUUGUCCGUCCUACUUAAAUCCCGUCGUAGCCACCA
DNA 1: CAATCTGAATTCCGGTCTCCC
DNA 2: TGGTGGCTACGACGGGATT
B2: GAAGCCA (DNA:RNA)
RNA: B1 RNA with U26A, C27A, C28G, U29C, A30C, C31A
DNA 1: CAATCTGAATTCCGGTCTCCC
DNA 2: TGGTGGCTACGACGGGATT
B3: ACUACGU (DNA:RNA)
RNA: GGGAGACCGGAAUUCAGAUUGUCCACUACGUUUAAAUCCCGUCGUAGCCACCA
DNA 1: CAATCTGAATTCCGGTCTCCC
DNA 2: TGGTGGCTACGACGGGATT
B4: UUUGUCA (DNA:RNA)
RNA: B1 RNA with G25U, C27U, C28G, A30C, C31A
DNA 1: CAATCTGAATTCCGGTCTCCC
DNA 2: TGGTGGCTACGACGGGATT
B5: UGUACCU (DNA:RNA)
RNA: B3 RNA with A25U, C26G, G30C
DNA 1: CAATCTGAATTCCGGTCTCCC
DNA 2: TGGTGGCTACGACGGGATT
B6: ACCGACG (DNA:RNA)
RNA: B3 RNA with U27C, A28G, C29A, G30C, U31G
DNA 1: CAATCTGAATTCCGGTCTCCC
DNA 2: TGGTGGCTACGACGGGATT
B7: AGAAGAC (DNA:RNA)
RNA: B3 RNA with C26G, U27A, C29G, G30A, U31C
DNA 1: CAATCTGAATTCCGGTCTCCC
DNA 2: TGGTGGCTACGACGGGATT
B8: GCUCAUG (DNA:RNA)
RNA: B3 RNA with A25G, A28C, C29A, G30U, U31G
DNA 1: CAATCTGAATTCCGGTCTCCC
DNA 2: TGGTGGCTACGACGGGATT
B9: UCUCGGG (DNA:RNA)
RNA: B3 RNA with A25U, A28C, C29G, U31G
DNA 1: CAATCTGAATTCCGGTCTCCC
DNA 2: TGGTGGCTACGACGGGATT
B10: CCUGUAG (DNA:RNA)
RNA: B3 RNA with A25C, A28G, C29U, G30A, U31G
DNA 1: CAATCTGAATTCCGGTCTCCC
DNA 2: TGGTGGCTACGACGGGATT
B11: UUGGUCU (DNA:RNA)
RNA: B1 RNA with G25U, C27G, C28G, A30C, C31U
DNA 1: CAATCTGAATTCCGGTCTCCC
DNA 2: TGGTGGCTACGACGGGATT
B12: GUACGUA (DNA:RNA)
RNA: B1 RNA with C27A, U29G, A30U, C31A
DNA 1: CAATCTGAATTCCGGTCTCCC
DNA 2: TGGTGGCTACGACGGGATT
B13: AAUGUUG (DNA:RNA)
RNA: B3 RNA with C26A, A28G, C29U, G30U, U31G
DNA 1: CAATCTGAATTCCGGTCTCCC
DNA 2: TGGTGGCTACGACGGGATT
B14: GAGUUGU (DNA:RNA)
RNA: B3 RNA with A25G, C26A, U27G, A28U, C29U
DNA 1: CAATCTGAATTCCGGTCTCCC
DNA 2: TGGTGGCTACGACGGGATT
B15: UAAAGGC (DNA:RNA)
RNA: B3 RNA with A25U, C26A, U27A, C29G, U31C
DNA 1: CAATCTGAATTCCGGTCTCCC
DNA 2: TGGTGGCTACGACGGGATT
B16: GACAGGC (DNA:RNA)
RNA: B1 RNA with U26A, C28A, U29G, A30G
DNA 1: CAATCTGAATTCCGGTCTCCC
DNA 2: TGGTGGCTACGACGGGATT
B17: AAGAGUC (DNA:RNA)
RNA: B3 RNA with C26A, U27G, C29G, G30U, U31C
DNA 1: CAATCTGAATTCCGGTCTCCC
DNA 2: TGGTGGCTACGACGGGATT
B18: AGCAGCG (DNA:RNA)
RNA: B3 RNA with C26G, U27C, C29G, G30C, U31G
DNA 1: CAATCTGAATTCCGGTCTCCC
DNA 2: TGGTGGCTACGACGGGATT
B19: UCACACA (DNA:RNA)
RNA: B3 RNA with A25U, U27A, A28C, C29A, G30C, U31A
DNA 1: CAATCTGAATTCCGGTCTCCC
DNA 2: TGGTGGCTACGACGGGATT
B20: GAAUGGU (DNA:RNA)
RNA: B3 RNA with A25G, C26A, U27A, A28U, C29G
DNA 1: CAATCTGAATTCCGGTCTCCC
DNA 2: TGGTGGCTACGACGGGATT
B21: UCAGAGC (DNA:RNA)
RNA: B3 RNA with A25U, U27A, A28G, C29A, U31C
DNA 1: CAATCTGAATTCCGGTCTCCC
DNA 2: TGGTGGCTACGACGGGATT
B22: UUCACGG (DNA:RNA)
RNA: B3 RNA with A25U, C26U, U27C, U31G
DNA 1: CAATCTGAATTCCGGTCTCCC
DNA 2: TGGTGGCTACGACGGGATT
B23: AAGCGGA (DNA:RNA)
RNA: B3 RNA with C26A, U27G, A28C, C29G, U31A
DNA 1: CAATCTGAATTCCGGTCTCCC
DNA 2: TGGTGGCTACGACGGGATT
B24: CAUGACA (DNA:RNA)
RNA: B3 RNA with A25C, C26A, A28G, C29A, G30C, U31A
DNA 1: CAATCTGAATTCCGGTCTCCC
DNA 2: TGGTGGCTACGACGGGATT
B25: AGUCCAU (DNA:RNA)
RNA: B3 RNA with C26G, A28C, G30A
DNA 1: CAATCTGAATTCCGGTCTCCC
DNA 2: TGGTGGCTACGACGGGATT
B26: UUUCUAG (DNA:RNA)
RNA: B1 RNA with G25U, C27U, C31G
DNA 1: CAATCTGAATTCCGGTCTCCC
DNA 2: TGGTGGCTACGACGGGATT
B27: UUAGUAG (DNA:RNA)
RNA: B1 RNA with G25U, C27A, C28G, C31G
DNA 1: CAATCTGAATTCCGGTCTCCC
DNA 2: TGGTGGCTACGACGGGATT
B28: UUGAUAA (DNA:RNA)
RNA: B1 RNA with G25U, C27G, C28A, C31A
DNA 1: CAATCTGAATTCCGGTCTCCC
DNA 2: TGGTGGCTACGACGGGATT
B29: GAGAGUU (DNA:RNA)
RNA: B3 RNA with A25G, C26A, U27G, C29G, G30U
DNA 1: CAATCTGAATTCCGGTCTCCC
DNA 2: TGGTGGCTACGACGGGATT
B30: AAUAGCU (DNA:RNA)
RNA: B3 RNA with C26A, C29G, G30C
DNA 1: CAATCTGAATTCCGGTCTCCC
DNA 2: TGGTGGCTACGACGGGATT
B31: AUCAGAA (DNA:RNA)
RNA: B1 RNA with G25A, C28A, U29G, C31A
DNA 1: CAATCTGAATTCCGGTCTCCC
DNA 2: TGGTGGCTACGACGGGATT

Target: T1, RBFOX1 RRM
Test: EMSA; HiTS-Eq, 1 nM pool, 10 min; buffer printed only for the single-RNA assays: 10 mM Tris pH 7.5, 150 mM NaCl, 3.4 mM EDTA, 0.001% NP-40, 30 C
Settings: tags: His6 N-terminal (pET28a); label: 5' 32P
How it was run: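 These values rest on relative association constants, computed from read-count changes of each RNA species versus the control reaction and normalised to the cognate motif. Reads came from free RNA recovered by 8% native PAGE after purified RbFox RRM (wild type or mutant) at increasing concentrations was equilibrated for 10 min in 50 µL with 1 nM of a 5′-radiolabelled pool with 7 randomized nucleotides and DNA-annealed flanks.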

Row | Binder | binding signal
1 | B1 | 0.00966 KA relative to UGCAUGU
2 | B2 | 0.00429 KA relative to UGCAUGU
3 | B3 | 0.00446 KA relative to UGCAUGU
4 | B4 | 0.0139 KA relative to UGCAUGU
5 | B5 | 0.00778 KA relative to UGCAUGU
6 | B6 | 0.00342 KA relative to UGCAUGU
7 | B7 | 0.00541 KA relative to UGCAUGU
8 | B8 | 0.0119 KA relative to UGCAUGU
9 | B9 | 0.0108 KA relative to UGCAUGU
10 | B10 | 0.00969 KA relative to UGCAUGU
11 | B11 | 0.0285 KA relative to UGCAUGU
12 | B12 | 0.0085 KA relative to UGCAUGU
13 | B13 | 0.0211 KA relative to UGCAUGU
14 | B14 | 0.0179 KA relative to UGCAUGU
15 | B15 | 0.00813 KA relative to UGCAUGU
16 | B16 | 0.00819 KA relative to UGCAUGU

Row | Binder | binding signal
17 | B17 | 0.00555 KA relative to UGCAUGU
18 | B18 | 0.0104 KA relative to UGCAUGU
19 | B19 | 0.000703 KA relative to UGCAUGU
20 | B20 | 0.0193 KA relative to UGCAUGU
21 | B21 | 0.0101 KA relative to UGCAUGU
22 | B22 | 0.00575 KA relative to UGCAUGU
23 | B23 | 0.00381 KA relative to UGCAUGU
24 | B24 | 0.00432 KA relative to UGCAUGU
25 | B25 | 0.00403 KA relative to UGCAUGU
26 | B26 | 0.0155 KA relative to UGCAUGU
27 | B27 | 0.0154 KA relative to UGCAUGU
28 | B28 | 0.00707 KA relative to UGCAUGU
29 | B29 | 0.0155 KA relative to UGCAUGU
30 | B30 | 0.00475 KA relative to UGCAUGU
31 | B31 | 0.00549 KA relative to UGCAUGU
